Source: EPA's CvTdb concentration-time database
The source gives many values for each of these; only a part stands here.

Experiments:
Rat [1] = assay: concentration in plasma after dosing; conditions: 2 h; dosed: 2-Methyltetrahydrofuran; 10 mg/kg; oral; Female; F344
Rat [2] = assay: concentration in plasma after dosing; conditions: 8 h; dosed: 2-Methyltetrahydrofuran; 400 mg/kg; oral; Male; F344
Rat [3] = assay: concentration in brain after dosing; conditions: 20 min; dosed: 2-Methyltetrahydrofuran; 400 mg/kg; oral; Female; F344
Rat [4] = assay: concentration in brain after dosing; conditions: 12 h; dosed: 2-Methyltetrahydrofuran; 400 mg/kg; oral; Female; Harlan Sprague Dawley
Rat [5] = assay: concentration in plasma after dosing; conditions: 12 h; dosed: 2-Methyltetrahydrofuran; 400 mg/kg; oral; Female; Harlan Sprague Dawley
Rat [6] = assay: concentration in brain after dosing; conditions: 10 min; dosed: 2-Methyltetrahydrofuran; 10 mg/kg; oral; Male; F344
Rat [7] = assay: concentration in plasma after dosing; conditions: 0.5 h; dosed: 2-Methyltetrahydrofuran; 10 mg/kg; oral; Female; F344
Rat [8] = assay: concentration in plasma after dosing; conditions: 10 min; dosed: 2-Methyltetrahydrofuran; 10 mg/kg; oral; Female; F344
Rat [9] = assay: concentration in brain after dosing; conditions: 1.5 h; dosed: 2-Methyltetrahydrofuran; 30 mg/kg; oral; Male; F344
Rat [10] = assay: concentration in plasma after dosing; conditions: 3 h; dosed: 2-Methyltetrahydrofuran; 10 mg/kg; iv; Male; F344
Rat [11] = assay: concentration in plasma after dosing; conditions: 2 min; dosed: 2-Methyltetrahydrofuran; 10 mg/kg; oral; Male; F344
Rat [12] = assay: concentration in plasma after dosing; conditions: 10 min; dosed: 2-Methyltetrahydrofuran; 10 mg/kg; iv; Female; F344
Rat [13] = assay: concentration in brain after dosing; conditions: 8 min; dosed: 2-Methyltetrahydrofuran; 10 mg/kg; oral; Male; F344
Rat [14] = assay: concentration in plasma after dosing; conditions: 2 min; dosed: 2-Methyltetrahydrofuran; 10 mg/kg; iv; Female; F344
Rat [15] = assay: concentration in brain after dosing; conditions: 0.5 h; dosed: 2-Methyltetrahydrofuran; 30 mg/kg; oral; Male; F344
Rat [16] = assay: concentration in plasma after dosing; conditions: dosed: Bromochloroacetic acid, 80 mg/kg, iv, Female, Harlan Sprague-Dawley
Rat [17] = assay: concentration in plasma after dosing; conditions: 40 min; dosed: Bromochloroacetic acid; 10 mg/kg; iv; Male; F344
Rat [18] = assay: concentration in plasma after dosing; conditions: dosed: Bromochloroacetic acid, 100 mg/kg, oral, Female, F344
Rat [19] = assay: concentration in plasma after dosing; conditions: 2 min; dosed: Bromochloroacetic acid; 10 mg/kg; iv; Male; F344
Rat [20] = assay: concentration in plasma after dosing; conditions: dosed: Bromochloroacetic acid, 100 mg/kg, oral, Male, F344
Rat [21] = assay: concentration in plasma after dosing; conditions: dosed: Fluorotelomer alcohol 8+2, 160 mg/kg, oral, Female, Harlan Sprague Dawley
Rat [22] = assay: concentration in plasma after dosing; conditions: dosed: Fluorotelomer alcohol 8+2, 48 mg/kg, oral, Male, Harlan Sprague Dawley
Rat [23] = assay: concentration in plasma after dosing; conditions: 3 h; dosed: Fluorotelomer alcohol 8+2; 24 mg/kg; oral; Male; Harlan Sprague Dawley
Rat [24] = assay: concentration in plasma after dosing; conditions: dosed: Formamide, 300 mg/kg, oral, Female, Harlan Sprague Dawley
Rat [25] = assay: concentration in plasma after dosing; conditions: dosed: Formamide, 36 mg/kg, oral, Male, Harlan Sprague Dawley
Rat [26] = assay: concentration in plasma after dosing; conditions: dosed: Formamide, 30 mg/kg, iv, Female, F344
Rat [27] = assay: concentration in plasma after dosing; conditions: dosed: Formamide, 600 mg/kg, oral, Female, Harlan Sprague Dawley
Rat [28] = assay: concentration in plasma after dosing; conditions: dosed: Formamide, 300 mg/kg, oral, Female, Harlan Sprague Dawley; remark: listed apart in the source
Rat [29] = assay: concentration in plasma after dosing; conditions: dosed: Formamide, 30 mg/kg, iv, Female, F344; remark: listed apart in the source
Rat [30] = assay: concentration in plasma after dosing; conditions: dosed: Formamide, 30 mg/kg, iv, Female, F344; remark: listed apart in the source
Rat [31] = assay: concentration in plasma after dosing; conditions: dosed: Formamide, 600 mg/kg, oral, Female, Harlan Sprague Dawley; remark: listed apart in the source
Rat [32] = assay: concentration in plasma after dosing; conditions: dosed: Formamide, 36 mg/kg, oral, Female, Harlan Sprague Dawley
Rat [33] = assay: concentration in plasma after dosing; conditions: dosed: Formamide, 300 mg/kg, oral, Female, Harlan Sprague Dawley; remark: listed apart in the source
Rat [34] = assay: concentration in plasma after dosing; conditions: dosed: Pyridine, 100 mg/kg, oral, Female, F344
Rat [35] = assay: concentration in plasma after dosing; conditions: 2 min; dosed: Pyridine; 10 mg/kg; iv; Female; F344
Rat [36] = assay: concentration in plasma after dosing; conditions: 10 min; dosed: Pyridine; 200 mg/kg; oral; Female; Harlan Sprague Dawley
Rat [37] = assay: concentration in plasma after dosing; conditions: 1 h; dosed: Pyridine; 50 mg/kg; oral; Female; F344
Rat [38] = assay: concentration in plasma after dosing; conditions: 10 min; dosed: Pyridine; 10 mg/kg; oral; Male; Harlan Sprague Dawley

CC1CCCO1 (centres undefined) [2-Methyltetrahydrofuran]
Conditions | concentration in brain [µg/g] | concentration in plasma [ng/mL]
Rat [1] | – | 3360
Rat [2] | – | 62900
Rat [3] | 150 | –
Rat [4] | 2.37 | –
Rat [5] | – | 1920
Rat [6] | 3.09 | –
Rat [7] | – | 3400
Rat [8] | – | 2150
Rat [9] | 7.32 | –
Rat [10] | – | 65.7
Rat [11] | – | 220
Rat [12] | – | 10000
Rat [13] | 2.22 | –
Rat [14] | – | 19000
Rat [15] | 13.3 | –

O=C(O)C(Cl)Br (centres undefined) [Bromochloroacetic acid]
concentration in plasma [ng/mL]
Conditions | 2 h | 3 h | 7 h | 20 min
Rat [16] | 3660 | 919 | – | –
Rat [18] | – | – | 575 | 37700
Rat [20] | – | – | 98.9 | 11000

Conditions | concentration in plasma [ng/mL]
Rat [17] | 126
Rat [19] | 28100

OCCC(F)(F)C(F)(F)C(F)(F)C(F)(F)C(F)(F)C(F)(F)C(F)(F)C(F)(F)F [Fluorotelomer alcohol 8+2]
concentration in plasma [ng/mL]
Conditions | 0.25 h | 0.5 h | 6 h | 9 h
Rat [21] | 147 | – | 1610 | –
Rat [22] | – | 527 | – | 72.4

Conditions | concentration in plasma [ng/mL]
Rat [23] | 195

NC=O [Formamide]
Conditions | concentration in plasma [ng/mL]
Rat [24], 0.5 h | 175000
Rat [24], 48 h | 28100
Rat [25], 1 h | 45300
Rat [25], 72 h | 2600
Rat [26], 1 h | 35300
Rat [26], 3 h | 30500
Rat [27], 10 min | 327000
Rat [27], 20 h | 383000
Rat [28], 8 h | 322000
Rat [28], 12 h | 280000
Rat [29], 1 h | 42600
Rat [29], 3 h | 31600
Rat [30], 10 min | 26900
Rat [30], 18 h | 8300
Rat [31], 10 min | 323000
Rat [31], 20 h | 343000
Rat [32], 2 h | 52500
Rat [32], 5 min | 9000
Rat [33], 0.5 h | 170000
Rat [33], 48 h | 28000

c1ccncc1 [Pyridine]
Rat [34]
Conditions | concentration in plasma [ng/mL]
2 h | 76600
14 h | 58900

Conditions | concentration in plasma [ng/mL]
Rat [35] | 7280
Rat [36] | 102000
Rat [37] | 23700
Rat [38] | 4890
